From PubChem BioAssay AID686979 (National Center for Advancing Translational Sciences (NCATS), 2013)
Values joined by “and” are separate entries in the source; they are usually repeats but may differ in a detail not shown here. Equal entries are not always repeated. The whole screen tested about 420,000 compounds, of which about 50,000 (12%) were called active. This list was built around the results that the source calls inconclusive (neither active nor inactive); the mix of calls is not that of the screen. Calls follow the shape of the dose curve; as a rule, active = well fitted inhibition curve with a large enough effect; inconclusive = small, poorly fitted or top-dose-only effect; inactive = flat fitted curve, though single readings scatter. Potencies of inconclusive entries are left out as doubtful fits.

Assay: qHTS for Inhibitors of human tyrosyl-DNA phosphodiesterase 1 (TDP1): qHTS in cells in presence of CPT; also: nearly all actives have a fitted effect of over 55% in size
Conditions: chicken DT40 Tdp1-/-;hTDP1 cells + 20 nM CPT, ATP luminescence, 48 h; activity change, negative = growth inhibition: at 46.2 µM (top of the series) unless noted
Summary of the method: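 Chicken DT40 Tdp1-/- cells stably complemented with human TDP1 were seeded at 400 cells/well in medium containing 20 nM camptothecin, exposed to pin-transferred compounds, and grown at 37 °C for at least 48 hr. Viability was read as ATP luminescence.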
% is scaled to controls: 0 for no effect and ±100 for the full control effect; potency is read from the fitted curve at half-maximal effect; tags tell the direction and shape of the fitted curve.

Row | Structure (SMILES) | Potency | activity change, negative = growth inhibition
1 | Cc1cc(C=C2C(=O)N(C)C(=S)N(C)C2=O)c(C)n1-c1ccncc1 | inconclusive [inhibitor, single point] | –
2 | Cc1cccc(-n2c(-c3ccccc3)nc3ccccc3c2=O)n1 | inconclusive [inhibitor, single point] | –
3 | COc1ccc(-n2c(-c3ccco3)nc3ccccc3c2=O)cc1 | inconclusive [inhibitor, single point] | –
4 | CSc1ncc(Cl)c(C(=O)O)n1 (tested in a mixture with another compound) | – | inactive: -0.923%
5 | CCN1CCN(Cc2cc(Br)cc(OC)c2O)CC1 | – | inactive: -2.85%
6 | COC(=O)C1=C(c2ccc(Cl)c(C(F)(F)F)c2)C[C@@H]2CC[C@H]1N2C(=O)NCCOc1ccc(OC)cc1 | inconclusive [inhibitor, single point] | –
7 | COc1ccc2[nH]c(C)c(CCNCc3cc(OC)c(OC)c(OC)c3)c2c1 | inconclusive [inhibitor, single point] | –
8 | O=C1NCN(c2ccccc2)C12CCN(C(c1ccccc1OC(F)(F)F)c1nnnn1Cc1ccccc1)CC2 (stereo not drawn) | inconclusive [inhibitor, single point] | –
9 | CCCCCCC(=O)c1c(O)n(-c2ccc(OC)cc2)c(=O)[nH]c1=O (tested in a mixture with another compound) | – | inactive: -29.4%
10 | C#CCOc1cc(C2C3=C(COC3=O)Nc3cc4c(cc32)OCO4)ccc1OC (stereo not drawn) | active: 20.6 µM | –
11 | O=c1[nH]c(=O)n(Cc2ccccc2)c(O)c1C=Nc1ccc(CN2CCOCC2)cc1 | – | inactive: -6.59%
12 | O=C1NC(=O)C(=Cc2ccc(SC3CCCCC3)o2)C(=O)N1 | active: 16.4 µM | –
13 | C=CCN1CCC2(C)c3cc(O)ccc3CC1[C@@H]2C (stereo partly drawn) | inconclusive [inhibitor, single point] | –
14 | CC(C)(O)[C@@H]1C2OC(=O)[C@@H]1[C@]1(O)C[C@H]3O[C@]34C(=O)O[C@H]2[C@]14C | inconclusive [inhibitor, single point] | –
15 | C#CCC(Cc1cnc2nc(N)nc(N)c2n1)c1ccc(C(=O)N[C@@H](CCC(=O)O)C(=O)O)cc1 (stereo partly drawn) | active: 0.0335 µM | –
16 | C#CCN1C(=O)S/C(=C\c2ccc(N3CCOCC3)cc2C)C1=O | inconclusive [inhibitor, partial curve] | –
17 | CC1(C)CN=C(NCc2ccccc2Cl)S1 | inconclusive [inhibitor, single point] | –
18 | CC1C(c2ccccc2)OC(=O)N1C (stereo not drawn) | – | inactive: -10.5%
19 | COC(=O)C1=C(c2ccc(-c3ccccc3)c(F)c2)C[C@@H]2CC[C@H]1N2C(=O)NC1Cc2ccccc2C1 | inconclusive [inhibitor, single point] | –
20 | Cc1nc2ccc(Cl)cn2c1P(=S)(N1CCOCC1)N1CCOCC1 | active: 14.6 µM | –
21 | Cn1c(=O)oc2cc(NC(=O)CCl)ccc21 | active: 13 µM | –
22 | O=C(CCC1CCCC1)c1c(O)c2ccccc2oc1=O | active: 5.17 µM | –
23 | Cn1ccnc1P(=S)(c1nccn1C)c1nccn1C | – | inactive: 10.2%

Row | Structure (SMILES) | Potency | activity change, negative = growth inhibition
24 | CCC(=O)C1=C(c2cccc([N+](=O)[O-])c2)N(C(=O)CC)n2c(nnc2C2CCCCC2)S1 | active: 3.26 µM | –
25 | CCCCCCC(=O)c1c(O)n(-c2ccccc2OC)c(=O)[nH]c1=O | inconclusive [inhibitor, single point] | –
26 | COc1cccc(N2C(=O)NC(=O)C3(Cc4cc(C)ccc4N(C)C3)C2=O)c1 (stereo not drawn) | inconclusive [inhibitor, single point] | –
27 | FC(F)(F)c1ccc2c(c1)N(CCCN1CCN(CCCl)CC1)c1ccccc1S2 | active: 8.2 µM | –
28 | COC(=O)C1=C(c2ccccc2)C[C@@H]2CC[C@H]1N2C(=O)NCCO | – | inactive: 13%
29 | COc1ccc(OC(=O)N(C)C[C@@H]2OCc3cnnn3CCCC(=O)N([C@@H](C)CO)C[C@@H]2C)cc1 | – | inactive: -2.61%
30 | C[C@]12CCC(=O)C=C1CC[C@@H]1C2CC[C@]2(C)C(=O)CCC12 (stereo partly drawn) | – | inactive: -10.3%
31 | CN(Cc1cccc(-c2ccncc2)c1)C(=O)Oc1ccccc1Cc1ccccc1 | inconclusive [inhibitor, single point] | –
32 | CCN1C[C@]2(COC)CC[C@H](O)[C@@]34C5C[C@@H]6[C@@H](OC)C[C@@](O)(C5[C@H]6O)[C@](O)([C@@H](OC)C23)[C@@H]14 (stereo partly drawn) | – | inactive: 7.86%
33 | COc1ccc(C(CNC(=O)c2ccc3c(c2)CCC3)N(C)C)cc1 (stereo not drawn) | inconclusive [inhibitor, partial curve] | –
34 | COC(=O)C1=C(C(=O)OC)SC2(S1)C(C(=O)OC)=C(C(=O)OC)Sc1c2ssc1=O | active: 0.092 µM | –
35 | Cc1ccc2nc(N)[nH]c(=O)c2c1Sc1ccncc1 | inconclusive [inhibitor, full curve] | –
36 | C=C(COC(=O)CCC(=O)O)CC1CC(O)[C@]2(C)OC3CC4OC5C[C@]6(C)O[C@]7(C)CCC8OC9C[C@]%10(C)OC%11C(C)=CC(=O)OC%11CC%10OC9C[C@@H](C)C8OC7CC6O[C@]5(C)C/C=C\C4OC3CC2O1 (stereo partly drawn) | active: 13 µM | –
37 | COC(=O)c1cc(NC(=O)Cn2nc(-c3ccccc3)c3c(c2=O)CCCC3)cc(C(=O)OC)c1 | inconclusive [inhibitor, single point] | –
38 | C=CCc1c(C)nc(C)nc1N/N=C/c1ccc(N(C)C)cc1 | active: 4.61 µM | –
39 | CCOC(=O)C1(CCOc2ccccc2)CCN(Cc2cnc(SC)nc2)CC1 | inconclusive [inhibitor, single point] | –
40 | Fc1ccccc1CN1Cc2ccccc2-n2nncc2C1 | inconclusive [inhibitor, single point] | –
41 | COc1ccc(N2C(=O)CS(=O)C(c3ccccc3)C2=O)cc1 (stereo not drawn) | inconclusive [inhibitor, single point] | –
42 | CCCSc1cc(OC)c(CCN)cc1OC | active: 1.84 µM | –
43 | c1ccc(N2[C@@H]3CC[C@H]2c2ccccc2C3)cc1 | inconclusive [inhibitor, single point] | –
44 | CCOc1cc2c(cc1OCC)-n1cccc1C(c1c(O)cccc1OC)NC2 (stereo not drawn) | active: 13 µM | –
45 | CC12Cc3cnoc3C=C1CCC1C2CCC2(C)C1CCC2(C)O (stereo not drawn) | inconclusive [inhibitor, single point] | –
46 | Cc1ccccc1C1CC(=O)Nc2ccc3ccccc3c21 (stereo not drawn) | active: 11.6 µM | –

Row | Structure (SMILES) | Potency | activity change, negative = growth inhibition
47 | O=C(CCl)Nc1sccc1C(=O)c1ccccc1 | active: 14.6 µM | –
48 | c1ccc2nc3ccccc3cc2c1 | active: 10 µM | –
49 | COC(=O)C1=C(c2ccc(C(C)=O)cc2)C[C@@H]2CC[C@H]1N2C(=O)NCc1ccc(C(F)(F)F)cc1 | inconclusive [inhibitor, single point] | –
50 | COC(=O)C1=C(c2ccccc2)C[C@@H]2CC[C@H]1N2C(=O)NCCCOC(C)C | – | inactive: 1.98%
51 | CCCCCCOc1ccc(CN2CCN(CC)CC2)cc1 | inconclusive [inhibitor, single point] | –
52 | C[C@@H]1C[C@@H]2O[C@H]2/C=C\C=C\C(=O)Cc2c(Cl)c(O)cc(O)c2C(=O)O1 | active: 0.0411 µM | –
53 | CN(C)c1ccc(C(O)P(=O)(OCc2ccccc2)c2ccc(N(C)C)cc2)cc1 (stereo not drawn) | inconclusive [inhibitor, partial curve] | –
54 | O=P(NC(c1ccccc1)c1ccccc1)(Oc1ccccc1)Oc1ccccc1 | inconclusive [inhibitor, single point] | –
55 | Cc1nc2cc(-c3cccc(F)c3)nn2c(C)c1CCC(=O)N1CCC2(CC1)OCCO2 | active: 16.4 µM | –
56 | Cc1[nH]c2ccc(OC(F)(F)F)cc2c1CCNCc1ccc(Cl)cc1 | active: 25.9 µM | –
57 | O=C(CNC(=O)OCc1ccccc1)Nc1ccc(Br)cc1C(=O)c1ccccc1Cl | inconclusive [inhibitor, single point] | –
58 | CC(=C1C(=O)c2ccccc2C1=O)N1CCN(CCN=Cc2c(O)n(C)c(=O)n(C)c2=O)CC1 | – | inactive: -15%
59 | COC(=O)C1=C(c2ccc(S(C)(=O)=O)cc2)C[C@@H]2CC[C@H]1N2C(=O)N1CCC(C)CC1 | inconclusive [inhibitor, single point] | –
60 | Cc1cc2n(n1)C(c1cc(C(C)(C)C)c(O)cc1O)Nc1ccccc1-2 (stereo not drawn) | active: 14.6 µM | –
61 | CC(C(=O)c1cn(C)c2ccccc12)c1ccccc1 (stereo not drawn) | inconclusive [inhibitor, single point] | –
62 | Clc1ccccc1N1CCN(Cc2ccc3c(c2)OCO3)CC1 | inconclusive [inhibitor, single point] | –
63 | Cc1ccccc1CN1C(=O)CN=C(c2ccccc2)c2cc(Cl)ccc21 | inconclusive [inhibitor, single point] | –
64 | C[C@H]1O[C@@H](O[C@H]2CC[C@@]3(C)[C@H](CC[C@@H]4[C@@H]3C[C@@H](O)[C@]3(C)[C@@H](C5=CC(=O)OC5)CC[C@]43O)C2)C[C@H](O)[C@@H]1O[C@H]1C[C@H](O)[C@H](O[C@H]2C[C@H](O)[C@H](O[C@@H]3O[C@H](CO)[C@@H](O)[C@H](O)[C@H]3O)[C@@H](C)O2)[C@@H](C)O1 | active: 1.33 µM | –
65 | CC(C)C(=O)Nc1ccc([N+](=O)[O-])c(C(F)(F)F)c1 | active: 11.6 µM and active: 13.3 µM | –
66 | CC(C)(COC(=O)C(c1ccccc1)c1ccccc1)CN1CCOCC1 | inconclusive [inhibitor, single point] | –
67 | CCOC(=O)c1cccc(NC(=O)NCc2ccc3c(c2)CCN3C(=O)c2ccccc2)c1 | active: 16.4 µM | –
68 | CC1=NNC(=O)C1Br (stereo not drawn) | inconclusive [inhibitor, single point] | –
